# The whole screen tested about 52,000 compounds, of which about 1,700 (3.3%) were called active. Rule as the data show it: active = survival mostly below about 52% (no sharp cut-off); inactive = mostly above about 56%. The list shows a part of the results.
# Test system: Wild type
# Assay: S. aureus survival, RN4220 and DeltatarO strains – OD600, teichoic acid synthesis inhibitors, primary screen (AID 463173)
# Conditions: S. aureus RN4220 wild type/DeltatarO growth, OD600, 18 h, stronger effect = lower value, screened at 18.75 µg/mL (by protocol)
row,SMILES,survival
1,COc1cccc(N2CCN(C(=O)Cn3nc(C)n4c(cc5c(OC)cccc54)c3=O)CC2)c1,inactive: 80%
2,COC(=O)c1c(NC(=O)COc2ccc(Cl)cc2)sc(C)c1C,inactive: 73%
3,O=C1c2cccc3cccc(c23)C(=O)N1c1ccncc1,inactive: 109%
4,COCc1cc(C)nc2c1C(=O)NC(c1ccc(Br)cc1)N2Cc1ccccc1 (stereo not given),inactive: 93%
5,CCc1ccc(NC(=O)C(=O)NCC(c2cccnc2)N2CCc3ccccc3C2)cc1 (stereo not given),inactive: 76%
6,COc1nnc(-c2ccc(N3CCCCC3)c(NC(=O)c3ccccc3Cl)c2)c2ccccc12,active: -7%
7,O=C(Nc1sc2c(c1C(=O)NCc1ccccc1)CCCC2)c1cc(=O)c2ccccc2o1,inactive: 83%
8,COc1ccc(Cl)cc1C(=O)NCc1nnnn1-c1ccccc1,inactive: 121%
9,O=C(OC(C(=O)NCc1cccs1)c1ccccc1Cl)c1ccco1 (stereo not given),inactive: 108%
10,O=C(NCc1ccc(Cl)cc1)C1CCN(c2ncnc3c2nc2n3CCCCC2)CC1,inactive: 55%
11,CCOc1ccccc1C(=O)NCC(c1cccs1)S(=O)(=O)c1ccc(F)c(C)c1 (stereo not given),inactive: 74%
12,CCc1ccc(NC(=O)CSc2nc3c(c(=O)[nH]2)CN(Cc2ccc(C)cc2)CC3)cc1,inactive: 108%
13,COc1cccc(-c2nc(SCC(=O)NCc3ccco3)c3c(=O)n(C)c(=O)n(C)c3n2)c1,inactive: 72%
14,CC1CCN(C(=O)Cn2cc(SCC(=O)Nc3ccccc3)c3ccccc32)CC1,inactive: 95%
15,CCOC(=O)c1noc2ncnc(N3CCN(c4cccc(C(F)(F)F)c4)CC3)c12,inactive: 105%
16,COc1ccc(-c2cc(C)no2)cc1S(=O)(=O)NCc1ccco1,inactive: 127%
17,CCN(CC)S(=O)(=O)c1ccc2c(c1)c(=O)c(C(=O)NCc1ccccc1Cl)cn2C,inactive: 73%
18,O=C(CSc1c2c(nc3cc(Cl)ccc13)CCCC2)N1CCN(c2ccccc2)CC1,inactive: 44%
19,NS(=O)(=O)c1ccc(S(=O)(=O)N(Cc2ccccc2F)CC2CCCO2)cc1 (stereo not given),inactive: 107%
20,CCOC(=O)c1c(-c2ccc(C)cc2)csc1NC(=O)c1cc(=O)c2cc(C)cc(C)c2o1,inactive: 114%
21,COc1ccc(-n2c(SCc3ccccc3F)nc3c([nH]c4ccccc43)c2=O)cc1OC,inactive: 54%
22,COc1cc(NC(=O)c2c3c(nc4ccccc24)C(=O)N(C2CCCCC2)C3)cc(OC)c1,inactive: 121%
23,CCOc1ccc(-c2nonc2NC(=O)c2oc3ccc(C)cc3c2C)cc1OCC,inactive: 89%
24,Cc1ccc(S(=O)(=O)Cc2nc(-c3ccc(C(=O)NCc4ccccc4C)cc3)oc2C)cc1,inactive: 73%
25,COc1ccc(Cn2ccn(Cc3cccc(Cl)c3)c(=O)c2=O)cc1,inactive: 111%
26,CC(=O)c1ccc(NC(=O)C2=CC(c3ccc(C)cc3)=NS(=O)(=O)N2C)cc1,inactive: 82%
27,CCCn1cc(S(=O)(=O)c2ccc(OC)cc2)c(=O)c2cc(F)c(N3CCCC(C)C3)cc21 (stereo not given),inactive: 71%
28,Cc1ccc(C(=O)Nc2nc3nc(-c4ccccc4)cc(=O)n3[nH]2)cc1,inactive: 131%

row,SMILES,survival
1,O=C(COc1ccccc1F)Nc1c(C(=O)Nc2cccc(F)c2)oc2ccccc12,inactive: 88%
2,O=C(Nc1cc(-c2ccccc2F)nn1-c1ccccc1)c1ccccc1Br,inactive: 72%
3,CCCCCOC(=O)CSc1nc2sc3c(c2c(=O)n1-c1ccccc1)CC(C)(CC)OC3 (stereo not given),inactive: 48%
4,O=C(CSc1nc2c(oc3ccccc32)c(=O)n1Cc1ccco1)Nc1ccccc1,inactive: 133%
5,Cc1ccc(CNC(=O)CCS(=O)(=O)c2cc3c(cc2C)NC(=O)CO3)cc1,inactive: 87%
6,O=C(O)CC1S/C(=N/N=C2CCCC2)NC1=O (stereo not given),inactive: 102%
7,Cc1cccc(CSc2nc(-c3cccc(C)c3)nc3c2Cc2c(CO)cnc(C)c2O3)c1,inactive: 87%
8,Cc1ccc(CN2CCCN(Cc3c(C)cc(C)cc3C)S2(=O)=O)cc1,inactive: 63%
9,CCCSC1=NC2(CCN(C(=O)NC3CCCCC3)CC2)N=C1c1ccc(Cl)cc1,inactive: 58%
10,COC(=O)CC(=O)CSc1nc(C)cc(C)c1C#N,inactive: 91%
11,COc1ccc(C)cc1NC(=O)COCc1cc(-c2ccc(F)cc2)on1,inactive: 79%
12,CC(C)(C)C(=O)OCc1cc(=O)n2nc(C3CC3)sc2n1,inactive: 89%
13,CCCN(CCC)c1nn2c(=O)c(C(=O)NCc3cc(Br)ccc3OC)cnc2s1,inactive: 82%
14,CCOC(=O)c1cc(-c2ccccc2)n(CC(=O)Nc2ccc(CC)cc2)c1C,inactive: 95%
15,COc1cc(Cl)c(C)cc1NC(=O)Cn1cc(S(=O)(=O)N2CCC(C)CC2)c2ccccc2c1=O,inactive: 128%
16,Cc1nn(Cc2noc(C(=O)NC(C)c3ccccc3)n2)c(C)c1Br (stereo not given),inactive: 72%
17,Cc1ccc(N2CCN(S(=O)(=O)c3c(C)[nH]c(=O)[nH]c3=O)CC2C)cc1 (stereo not given),inactive: 78%
18,COc1ccc(OC)c(CCNC(=O)CCn2c(=O)c3cccn3c3ccc(F)cc32)c1,inactive: 87%
19,Cc1cccc(S(=O)(=O)c2cn(C)c3cc(N4CCN(c5ccc(F)cc5)CC4)c(F)cc3c2=O)c1,inactive: 82%
20,CC(C)c1ccc(NC(=O)CSC2=Nc3ccccc3C3=NC(CCC(=O)NCc4ccco4)C(=O)N23)cc1 (stereo not given),inactive: 77%
21,CCCCNC(=O)c1ccccc1NC(=O)CN(c1ccccc1)S(=O)(=O)N(C)C,inactive: 91%
22,CCN(CC)c1ccc(NC(=O)CNCC2CCCCC2)c(C)c1,inactive: 103%
23,O=C(CSc1nc(=O)n(Cc2ccco2)c2c1CCC2)Nc1ccccc1C(F)(F)F,inactive: 138%
24,Cc1ccc2c(=O)cc(C(=O)Nc3ccc(S(=O)(=O)N4CCCCCC4)cc3)oc2c1,inactive: 106%
25,CCN(Cc1ccccc1)C(=O)Cn1c(=O)n(-c2ccc(Cl)cc2)c(=O)c2c(C)c(C)sc21,inactive: 92%
26,Cc1ccc(Cl)cc1N1CCN(C(=O)c2cc(S(=O)(=O)N3CCCC3)c[nH]2)CC1,inactive: 77%
27,CCc1ccc(NC(=O)C2CCCN(S(=O)(=O)c3ccc(F)cc3)C2)cc1 (stereo not given),inactive: 75%
